Test results published in PubChem BioAssay AID463173 (ICCB-Longwood Screening Facility, Harvard Medical School, 2010).
Hit rate of the full screen: of about 52,000 compounds, about 1,700 (3.3%) were called active. No stated cut-off is given here; in the data, active means survival mostly below about 52% (no sharp cut-off); inactive means mostly above about 56%. The list shows a part of the results.

tested on: Wild type; experiment: growth inhibition of S. aureus wild type versus tarO mutant, primary screen, teichoic acid synthesis inhibitors, RN4220, OD600 (AID 463173); conditions: S. aureus RN4220 wild type/DeltatarO growth, OD600, 18 h, active compounds read low, screened at 18.75 µg/mL (by protocol)

Row | SMILES | survival
1 | CCN(CC)C(=O)Cn1c(=O)n(Cc2ccc(C(=O)NCCCOC)cc2)c(=O)c2ccccc21 | inactive: 74%
2 | O=C(Nc1ccc(F)cc1F)c1cc(S(=O)(=O)N2CCCCC2)c[nH]1 | inactive: 83%
3 | COc1ccc(C(=O)CCC(=O)Nc2ccc(F)cc2F)cc1 | inactive: 82%
4 | COc1ccc(F)cc1S(=O)(=O)Nc1ccc2c(c1)CCCN2C(=O)c1cccs1 | inactive: 45%
5 | Cc1ccc(C)c(NC(=O)N2CCN3CCCCC3C2)c1 (stereo not drawn) | inactive: 68%
6 | COc1ccc(CCN(Cc2nc3ccccc3c(=O)[nH]2)C(=O)C(C)C)cc1 | inactive: 120%
7 | Cc1cc(NC(=O)c2cc(Cl)ccc2Cl)ccc1-c1cc2ccccc2oc1=O | inactive: 138%
8 | CCOC(=O)C1=C(C)N=C2SCCC(=O)N2C1c1ccc(OCc2ccccc2)c(OC)c1 (stereo not drawn) | inactive: 123%
9 | CCOC(=O)CSc1nc2cc(OC)c(OC)cc2c2nc(-c3ccccc3)nn12 | inactive: 66%
10 | CCOc1ccc(N2C(=O)CC(N3CCC(O)(c4ccc(Cl)cc4)CC3)C2=O)cc1 (stereo not drawn) | inactive: 105%
11 | COc1ccc(Cn2nnnc2CN2CCC(NC(=O)c3cccc(OC)c3)CC2)cc1 | inactive: 115%
12 | COC(=O)c1sccc1S(=O)(=O)N(CC(=O)NCc1ccc(C)cc1)c1ccc(C)c(C)c1 | inactive: 74%
13 | NS(=O)(=O)c1ccc(NC(=O)COc2ccc(S(=O)(=O)NC3CCCCC3)cc2)cc1 | inactive: 76%
14 | COc1cccc(N(CC(=O)N2CCC(C(N)=O)CC2)S(C)(=O)=O)c1 | inactive: 100%
15 | COc1cccc(-n2nnc(-c3nc(-c4cccs4)no3)c2N)c1 | inactive: 95%
16 | COc1ccc(NS(=O)(=O)c2ccc3[nH]c(=O)ccc3c2)cc1OC | inactive: 96%
17 | N#Cc1c(NC(=O)CN2CCCCC2)sc2c1CCC2 | inactive: 109%
18 | O=C1CS(=O)(=O)C2(C(=O)N(Cc3ccccc3)c3ccccc32)N1c1ccc(F)c(Cl)c1 (stereo not drawn) | inactive: 92%
19 | CCOc1ccc(S(=O)(=O)Nc2cccc(OC)c2)c2cccnc12 | inactive: 112%
20 | Cc1ccc(CCNC(=O)CN2C(=O)COc3ccc(S(=O)(=O)N4CCCCCC4)cc32)cc1 | inactive: 91%

Row | SMILES | survival
21 | O=C(Nc1cccc(Cl)c1)c1cc(-c2ccc3c(c2)OCO3)on1 | inactive: 90%
22 | CN1C(=O)c2ccccc2Sc2ccc(NC(=O)NCc3ccc(Cl)cc3)cc21 | inactive: 110%
23 | CCOC(=O)c1c(NC(C)=O)sc2c1CCC2 | inactive: 104%
24 | COc1ccccc1C(=O)Oc1c(Sc2ccccc2)c(C)nn1-c1ccccc1 | inactive: 57%
25 | COc1cc(OC)cc(C(=O)Nc2ccc3nc4n(c(=O)c3c2)CCCCC4)c1 | inactive: 79%
26 | COCCc1nn2c(=O)cc(COC(=O)c3ccccc3C)nc2s1 | active: -6%
27 | Cc1ccc(C)c(N2CCN(C(=O)c3ccc4c(=O)n(CCc5ccccc5)c(=O)[nH]c4c3)CC2)c1 | inactive: 67%
28 | O=C(Nc1cc(-c2ccc(Cl)cc2)no1)c1ccc(F)cc1 | inactive: 97%
29 | CCCSCCCNC(=O)CN1C(=O)COc2ccc(S(=O)(=O)N3CCCC3)cc21 | inactive: 73%
30 | C=CCNc1nc(Cl)nc(Cl)n1 | inactive: 101%
31 | Cc1ccc2nc(C)cc(C(=O)O)c2c1 | inactive: 104%
32 | CCCCn1c(=O)c2oc3ccccc3c2n(Cc2ccccc2C)c1=O | inactive: 81%
33 | CCOC(=O)c1[nH]c2c(c1Cc1ccccc1OC)C(=O)CC(c1ccccc1)C2 (stereo not drawn) | inactive: 126%
34 | O=C(COc1ccc(F)cc1)Nc1ccccc1C(=O)OCc1cc(=O)n2ccsc2n1 | inactive: 90%
35 | COc1cc(NC(=O)C2=CC(c3ccco3)=NS(=O)(=O)N2C)cc(OC)c1OC | inactive: 97%
36 | NC(=O)c1ccccc1NC(=O)CN1c2ccccc2S(=O)(=O)c2ccccc21 | inactive: 83%
37 | CCOC(=O)c1c(C)oc2c1c(O)c(N=O)c1ccccc12 | active: 7%
38 | Cc1nc(-c2ccccc2)sc1CCNC(=O)C(=O)Nc1ccc(F)c(Cl)c1 | active: 1%
39 | COc1cc(Cl)c(C)cc1NC(=O)Cn1c2ncccc2c(=O)n1-c1ccccc1 | inactive: 65%
40 | CCc1ccc(-n2nnc(-c3nc(-c4ccc(C)cc4)no3)c2N)cc1 | inactive: 97%

Row | SMILES | survival
41 | COc1cccc(N2CCN(C(=O)Cn3nc(C)n4c(cc5c(OC)cccc54)c3=O)CC2)c1 | inactive: 80%
42 | COC(=O)c1c(NC(=O)COc2ccc(Cl)cc2)sc(C)c1C | inactive: 73%
43 | O=C1c2cccc3cccc(c23)C(=O)N1c1ccncc1 | inactive: 109%
44 | COCc1cc(C)nc2c1C(=O)NC(c1ccc(Br)cc1)N2Cc1ccccc1 (stereo not drawn) | inactive: 93%
45 | CCc1ccc(NC(=O)C(=O)NCC(c2cccnc2)N2CCc3ccccc3C2)cc1 (stereo not drawn) | inactive: 76%
46 | COc1nnc(-c2ccc(N3CCCCC3)c(NC(=O)c3ccccc3Cl)c2)c2ccccc12 | active: -7%
47 | O=C(Nc1sc2c(c1C(=O)NCc1ccccc1)CCCC2)c1cc(=O)c2ccccc2o1 | inactive: 83%
48 | COc1ccc(Cl)cc1C(=O)NCc1nnnn1-c1ccccc1 | inactive: 121%
49 | O=C(OC(C(=O)NCc1cccs1)c1ccccc1Cl)c1ccco1 (stereo not drawn) | inactive: 108%
50 | O=C(NCc1ccc(Cl)cc1)C1CCN(c2ncnc3c2nc2n3CCCCC2)CC1 | inactive: 55%
51 | CCOc1ccccc1C(=O)NCC(c1cccs1)S(=O)(=O)c1ccc(F)c(C)c1 (stereo not drawn) | inactive: 74%
52 | CCc1ccc(NC(=O)CSc2nc3c(c(=O)[nH]2)CN(Cc2ccc(C)cc2)CC3)cc1 | inactive: 108%
53 | COc1cccc(-c2nc(SCC(=O)NCc3ccco3)c3c(=O)n(C)c(=O)n(C)c3n2)c1 | inactive: 72%
54 | CC1CCN(C(=O)Cn2cc(SCC(=O)Nc3ccccc3)c3ccccc32)CC1 | inactive: 95%
55 | CCOC(=O)c1noc2ncnc(N3CCN(c4cccc(C(F)(F)F)c4)CC3)c12 | inactive: 105%
56 | COc1ccc(-c2cc(C)no2)cc1S(=O)(=O)NCc1ccco1 | inactive: 127%
57 | CCN(CC)S(=O)(=O)c1ccc2c(c1)c(=O)c(C(=O)NCc1ccccc1Cl)cn2C | inactive: 73%
58 | O=C(CSc1c2c(nc3cc(Cl)ccc13)CCCC2)N1CCN(c2ccccc2)CC1 | inactive: 44%
